The values that follow come from PubChem BioAssay AID463173 (ICCB-Longwood Screening Facility, Harvard Medical School, 2010).

Among all 52,000 compounds or so, about 1,700 (3.3%) were called active. Cut-off read from the data, not from the text of the source: active = survival mostly below about 52% (no sharp cut-off); inactive = mostly above about 56%. This is one part of the list.

The subject of this assay is Wild type. The assay can be described thus: growth inhibition of S. aureus wild type versus tarO mutant, primary screen, teichoic acid synthesis inhibitors, RN4220, OD600 (AID 463173). The note with it: S. aureus RN4220 wild type/DeltatarO growth, OD600, 18 h, stronger effect = lower value, screened at 18.75 µg/mL (by protocol).
Regarding `Cc1ccc(N(CC(=O)NCc2ccc(F)cc2)S(=O)(=O)c2c(C)nn(C)c2C)cc1`, the survival is inactive: 87%.

Take `COc1cccc(CNC(=O)c2ccc3c(c2)nnn3C2CCCC2)c1`: the survival is inactive: 134%. The same measure for `COc1ccc(-n2nc(C(=O)Nc3ccc(C)cn3)c3c4ccccc4n(C)c3c2=O)cc1`: inactive: 74%; for `Cc1ccc(-n2cc(-c3ccccc3)nc2S(=O)(=O)CC(=O)Nc2ccc(F)cc2)cc1`: inactive: 80%.

Turning to `CCCCSCCCNC(=O)c1cn(C)c2ccc(S(=O)(=O)N3CCCCC3)cc2c1=O`, the survival was inactive: 84%. In the case of `CCN(CC)C(=O)Cn1c(=O)n(-c2ccc(OC)cc2OC)c(=O)c2c(C)c(C(=O)N(CC)CC)sc21` it was inactive: 113%; in that of `CCc1c(C)nc2cc(-c3cc(OC)cc(OC)c3)nn2c1NCCCN(CC)CC`, inactive: 107%. In the case of `COc1ccccc1C(=O)Nc1nnc(SCc2cc(=O)c3cc(Cl)ccc3[nH]2)s1` it was inactive: 83%; in that of `COc1ccc(OC)c(NC(=O)Cn2ccc3ccccc3c2=O)c1`, inactive: 68%; in that of `COc1ccc(NC(=O)c2c(-c3ccc(C)cc3)nnc3ccccc23)cc1Cl`, inactive: 74%. The same measure for `O=C(CNC(=O)c1ccccc1F)OCc1cc(=O)n2ccsc2n1`: inactive: 102%; for `Cc1ccc(C)c(N2CCN(C(=O)C3CCCN(S(=O)(=O)c4cccc5nsnc45)C3)CC2)c1` (stereo unspecified): inactive: 73%; for `O=C(NCc1ccco1)C(Sc1ccccc1)c1ccccc1` (stereo unspecified): inactive: 100%.

Consider `O=S(=O)(c1ccccc1)c1nc(-c2ccc(Cl)cc2Cl)oc1N1CCCCC1`, for which the survival was inactive: 57%.

Turning to `COc1ccc(C)cc1NC(=O)Cn1c(=O)cc(C)c2c(C)nn(C)c21`, the survival was inactive: 68%. The same measure for `Cc1ccc(CN2CCN(C3CCN(C(=O)c4ccccc4)CC3)C(=O)C2=O)cc1`: inactive: 78%; for `Cc1nc(-c2ccc(Cl)cc2)sc1CCNC(=O)Cc1ccc(F)cc1`: inactive: 120%; for `Cc1ccc(C(=O)Nc2cccc(O)c2)cc1S(=O)(=O)N1CCCCCC1`: inactive: 92%. The same measure for `O=C(NCC1CCN(S(=O)(=O)c2ccc(Cl)cc2)CC1)C1CCCO1` (stereo unspecified): inactive: 87%.

On to `CCN(CC)CCCNC(=O)c1cn(CC)c2ccc(S(=O)(=O)N3CCc4ccccc4C3)cc2c1=O`, for which the survival is inactive: 118%. The same measure for `COc1ccc(-c2nc(SCC(=O)N3CCN(c4ccc(F)cc4)CC3)n[nH]2)cc1`: inactive: 85%. For the molecule `CCCCOc1ccc(CNC(=O)Cc2ccc(NC(=O)N3CCCCc4ccccc43)cc2)cc1`, the survival was inactive: 75%. The same measure for `COc1ccc(CCNC(=O)c2ccc3c(c2)N(Cc2cc(C)ccc2C)C(=O)c2ccccc2S3=O)cc1OC` (stereo unspecified): inactive: 93%; for `O=C(NC1CC1)C1CCN(C(=O)c2ccc(Cl)cc2)CC1`: inactive: 110%; for `CC(C)(C)OC(=O)N1CCC(c2c(C(=O)N3CCN(c4ccccc4)CC3)cnn2-c2ccccc2)CC1`: inactive: 71%. The same measure for `CCOC(=O)c1c(Nc2ccc(F)cc2)nnc(-c2ccccc2)c1-c1ccccc1`: active: 1%; for `O=C(Oc1ccccc1)c1ccc(F)cc1`: inactive: 102%. In the case of `CCn1c(=O)n(-c2ccc(F)cc2)c(=O)c2sc3ccccc3c21` it was inactive: 89%. In the case of `CCCN(C(=O)c1cc2ccc3cccnc3c2[nH]1)c1ccc(F)cc1`, the survival was inactive: 80%.

With `O=C(c1ccccc1Cl)N(Cc1ccco1)c1ccccn1`, the survival was inactive: 80%. In the case of `CCSc1ccccc1C(=O)NCCCn1ccnc1` it was inactive: 101%. The same measure for `Cc1cc(Br)ccc1NC(=O)Cn1cnc2sc(C)c(S(=O)(=O)N3CCN(C)CC3)c2c1=O`: inactive: 143%; for `COC(=O)c1sc2cccc(F)c2c1S(=O)(=O)Nc1ccc(N(C)C)cc1`: inactive: 53%.

In the case of `Nc1c(NCCN2CCOCC2)c2ccccc2oc1=O`, the survival is inactive: 103%.

With `CC(=O)N1CCC2(CC1)OC(=O)C(C)=C2C(=O)Nc1cc(C)ccc1C`, the survival is inactive: 84%.

As for `CCOC(=O)c1cc(-c2ccc(C)cc2)n(CC(=O)Nc2ccccc2F)c1C`, the survival is inactive: 102%. In the case of `CC(=O)Nc1ccc(-n2c(CCC(=O)O)ccc2-c2ccc(Br)cc2)cc1` it was inactive: 80%; in that of `COc1ccc(Cl)cc1NC(=O)Cn1c(=O)n(Cc2cccs2)c(=O)c2cccnc21`, inactive: 68%; in that of `Cc1nc2cccnc2n1C1CCN(S(=O)(=O)N(C)C)CC1`, inactive: 65%.

Consider `COc1ccc(CNC(=O)Cc2c(C)c3c(cc(C)c4c(C)coc43)oc2=O)cc1OC`, for which the survival was inactive: 87%. In the case of `Cc1ccc(NC2=NCC(=O)N2C2CCCC2)cc1C`, the survival is inactive: 104%. For `Cc1ccc2nc(-c3cc4ccccc4oc3=O)[nH]c2c1`, the survival is inactive: 104%. The same measure for `COC(=O)c1ccccc1NC(=O)c1ccc(COc2cc(C)cc(C)c2)o1`: inactive: 59%. The same measure for `COc1ccc(CCCc2nnc(SCC(=O)Nc3cc(C)ccc3C)o2)cc1`: inactive: 68%; for `O=C(NCc1ccccn1)C1CCCCC1`: inactive: 99%; for `COc1ccc(Br)c2c1-c1nc(NC(=O)c3ccccc3F)sc1C2`: inactive: 95%. On to `Cn1c(O)c(C=NCC2(C)CC(O)CC(C)(C)C2)c(=O)n(C)c1=S` (stereo unspecified), for which the survival is inactive: 114%. The same measure for `Cc1nc2ccc(S(=O)(=O)N(CC(=O)Nc3cccc(Cl)c3)Cc3ccccc3)cc2s1`: inactive: 82%. Take `Cc1cccc(C(=O)NC(c2n[nH]c(=S)n2C)C(C)C)c1` (stereo unspecified): the survival was inactive: 122%. The same measure for `Cc1nn(CC(=O)NCc2ccc(N(C)C)cc2)c(=O)c2c(C)n(-c3ccc(Cl)cc3)nc12`: inactive: 95%; for `CCOc1ccc(NC(=O)CCn2c(=O)c3cccn3c3cccnc32)cc1`: inactive: 90%; for `CCOc1ccc(Cn2nnc(C(=O)Nc3cccc(SC)c3)c2N)cc1`: inactive: 73%. The same measure for `C=CCn1c(CSc2nc3ccccc3s2)nnc1SCC(=O)NCCN1CCOCC1`: inactive: 96%.

Consider `Cc1nn(-c2ccc(F)cc2)c(-n2cccc2)c1C(=O)N1CCN(c2ccccc2)CC1`, for which the survival was inactive: 68%. Regarding `Cc1cc2nn(-c3ccccc3)nc2cc1NC(=O)COc1ccc(Cl)cc1`, the survival was inactive: 65%. In the case of `CC1CCC(NC(=O)CCc2cn(Cc3ccccc3Cl)c3ccccc23)CC1` (stereo unspecified) it was inactive: 84%; in that of `Cc1cc(NC(=O)c2cc(-c3cccc(Cl)c3)on2)nn1Cc1ccc(Cl)cc1`, inactive: 82%. The same measure for `COC(=O)C1CSCN1` (stereo unspecified): inactive: 100%; for `CCCN(CCC)C(=O)Cn1c(=O)n(-c2ccc(C)c(C)c2)c(=O)c2c3c(sc21)CCCCC3`: inactive: 80%; for `Cc1ccc(CN2C(=O)N(c3ccc(F)cc3)C(=O)C2CC(=O)Nc2ccc(Cl)cc2)cc1` (stereo unspecified): inactive: 111%. The same measure for `Cc1ncc(CO)c2c1Oc1nc(-c3ccc(F)cc3)nc(SCC(=O)N3CCCCC3)c1C2`: inactive: 82%. Regarding `Cc1ccc(C)c(Cn2c3ccccc3c3cnn(CC(=O)NC4CCC(C)CC4)c(=O)c32)c1` (stereo unspecified), the survival is inactive: 80%. The same measure for `O=C(NCCc1ccccc1)C1CCN(c2ncnc3c2nc2n3CCCCC2)CC1`: active: -4%; for `COc1ccc(NC(=O)CSC2=Nc3ccccc3C3=NC(CCC(=O)NCc4cccs4)C(=O)N23)cc1` (stereo unspecified): inactive: 78%. The same measure for `Cc1ccc(NC(=O)CSc2nnc(-c3cc4occc4n3C)n2-c2ccccc2C)c(Cl)c1`: inactive: 99%; for `COC(=O)CN1C(=O)CSc2ccc(S(=O)(=O)Nc3cccc(Br)c3)cc21`: inactive: 32%; for `CCOc1ccc(NC(=O)CSc2nc3c(oc4ccccc43)c(=O)n2-c2cc(C)cc(C)c2)cc1`: inactive: 84%. In the case of `CC1=C(C(=O)NCc2cccc(Br)c2)C2(CCCCC2)OC1=O` it was inactive: 82%; in that of `CCCCOC(=O)/C(C#N)=C/c1ccc(-c2cccc(C(F)(F)F)c2)o1`, inactive: 53%; in that of `CCOc1ccc(-c2nonc2NC(=O)c2ccco2)cc1`, inactive: 92%. In the case of `Cc1ccccc1CNC(=O)C1CCN(S(=O)(=O)Cc2ccccc2)CC1`, the survival is inactive: 83%. With `COc1cc(/C=C/c2nc(C#N)c(N3CCCCC3)o2)cc(OC)c1OC`, the survival is inactive: 113%. The same measure for `CC1(C)CC(=O)C/C(=N\NC(=O)CCc2ccccc2)C1`: inactive: 122%; for `Cc1ccc(C2c3[nH]c4ccccc4c3CCN2C(=O)c2ccccc2Br)cc1` (stereo unspecified): inactive: 68%. For `Cc1ccc(C(=O)Nc2c(-c3ccccc3)nc3ccccn23)cc1`, the survival was inactive: 62%. In the case of `Cc1nnc(N2CCC(C(=O)Nc3ccc(F)cc3)CC2)c2nn(-c3ccc(Cl)cc3)c(C)c12` it was inactive: 71%.

`CCOC(=O)c1c(NC(C)=O)sc2c(NC(C)=O)cccc12`: the survival is inactive: 100%.

`CCC(C(=O)OCc1cc(=O)n2nc(C)sc2n1)c1ccccc1` (stereo unspecified): the survival was inactive: 125%. With `Cc1cccc(-c2noc(CN(C3CCCCC3)S(=O)(=O)c3ccc(F)cc3)n2)c1`, the survival is inactive: 82%. The same measure for `O=S(=O)(c1ccccc1)N1CCC(n2cnc3ccccc32)CC1`: inactive: 128%; for `Cc1ccc(-c2nc(=O)[nH]c3ccccc23)cc1`: inactive: 108%; for `COc1ccc2c(c1)-c1nc(NC(=O)c3ccc(OC)c(Br)c3)sc1CC2`: inactive: 82%. Regarding `C(=N\N(Cc1ccccc1)Cc1ccccc1)/c1ccco1`, the survival is inactive: 101%. In the case of `COc1ccc(OC)c(NC(=O)c2c(NCc3sccc3C)sc3c2CCCCC3)c1` it was inactive: 74%.

On to `CS(=O)(=O)N(CCC(=O)O)Cc1ccccc1`, for which the survival was inactive: 115%. In the case of `COc1ccc(NC(=O)CSc2nc3ccccc3nc2N2CCC(C)CC2)cc1` it was inactive: 45%.

For `COc1ccc(CNC(=O)CN(c2ccc(C(C)C)cc2)S(=O)(=O)c2c(C)nn(C)c2C)cc1`, the survival is inactive: 81%.

Take `Cc1ccccc1NC(=O)Nc1nnc(N2CCCCCC2)s1`: the survival is inactive: 97%. `COc1ccccc1NC(=O)CCn1nc(-c2ccccc2OC)c2c(C)cc(C)nc21`: the survival is inactive: 111%.

For the molecule `Cc1ccccc1OCC(=O)OCc1cc(=O)n2nc(C3CC3)sc2n1`, the survival was inactive: 81%.

Take `CCC(=O)N1CCc2cc(Br)cc(S(=O)(=O)CCC(=O)N3CCN(c4ccc(F)cc4)CC3)c21`: the survival is inactive: 138%.
